# Reference: the supplement of paper PMC12632987
# Whole data set: some 4,500 sequences, median “median log2 fold change of GCK-ALFA target abundance (FLAG IP / Myc IP barcode read proportion)” near 0.078, cut for the lowest 2% near -0.6. The list shows a part of the results.
# B1: GBRAP_160_4013 (protein)
# chain: MEEIEKLKKEIEEIFEETIEDMEGLTPEERLTLIRGAVGDILQLAAESPAVSDETEDKIAEIGDELIKEFEKNKDAPLEVWKELIKKALEKIKELLKKEE
# B2: GBRAP_128_3374 (protein)
# chain: VDEEKLKKIKELVEKMLTSTVEEVAELTKEIIELLKTASPEEQEAAVEIILEKLPEFTVEKLDAIADVIREAMKTASPYLQELLAEVEVEALNVAEEKEE
# B3: GBRAP_137_3669 (protein)
# chain: MIEAEIELENGLAFARITVEGSKEELERAAEIAEDIAGEIPNLAVSVELSEDGTLVIDVFGTKEDVLKFLKELAKRLNKTVKVKTKNLETGEEKEEVIEP
# B4: GBRAP_11_2658 (protein)
# chain: KKEILLKAAELAEKAAKALEKLIEVGTDDEELQKEIEKLLKEIKELADKHFDEALRSDVDVAVELWKEFLEDEENKEKYAKELLAAVRVLEGNLLLAADE
# B5: GBRAP_9_7133 (protein)
# chain: REELIKKMAEVVKEMVEDLAEAIPELSEEKKEEFKKRVDELKEELLADKEATPEEIAKRFKELVKEIEEEVKKIVDEDLAKIARAIALTAIEEIDEIAEE
# B6: GBRAP_125_3117 (protein)
# chain: HMEEALEDLRLLMRALGFSEEDIEEAVELARRFGLKNTMIAIALALGEEELADLIEQLSEEAVREALARVAAHIRAHPDLTPEEVKERFREVLREALARE
# B7: GBRAP_184_5221 (protein)
# chain: TVVREAVEAKTAEEAIAKAEKVIKEAQAAGKKLELTVFLENMSLEEIEEVMKYLAKKKEEGLIENAIVEVLDERSEEEVDELVKIADKYGIRLVVALPDE
# B8: GBRAP_160_4202 (protein)
# chain: EEKVKKIIEELKEETEEVIKLLDEVSVEEAAVFAEVEFGSVLMLAVELGIENDEILDVIDEAGDKIVKYLKENKDASVEELKKKIKEITEEAIKKIKELA
# B9: GBRAP_39_5698 (protein)
# chain: EREEEAEEVFSYYEAVGAKYAVEKGISLEEVKALAEERAEEFIAKHPEIAETMEELLELAKEAGDLAVLALLGLLLKAEEGTPLEQIKKDAELLIEYLKS
# B10: GBRAP_11_2832 (protein)
# chain: EKEKLKKLAEMAKEVADKLKKLIASGNPSEEELQELLEKAEKLLKEVKEYGDESLEKIAEIALEEIKKAIEDPENQKEYLEHALAFARVLEGQFLLELEE
# B11: GBRAP_128_3369 (protein)
# chain: LDEARLAEIRALVEAMIESSVEETRELTAEIVERIGTLSPEEQEAAVAIILEALPQFSKEKLEAIADTIRERRDELDPYTQRLLAEVEVEALNLAEELEE
# B12: GBRAP_150_3938 (protein)
# chain: DLEELLLLAEGIETDLELALEPGFDRLKLAERALELAKEIAKESDEELKKLAEELIKILEEAIKAIKEGAPQEEIDKLIKEALKLAEKLIEEIEKKIKEE
# B13: GBRAP_14_3821 (protein)
# chain: MEEILKVIEEEYEELAEELSEIAPEKKEEIKEIVEEKKKETIEEIKETGDAEEAVEEEREELLEEIEKLTADLPEEIRNTALAEADIEMAELEEEVEELE
# B14: GBRAP_35_5528 (protein)
# chain: ATDEEIAEMLAATIDDLVLAIPDMPVDTAKAAALSIAEAAKELAEEVKDNKKALELIAESVKRLAEALKKEAEKDPAMKPAYEKAKEVLEYIEKLIKEAE
# B15: GBRAP_160_4662 (protein)
# chain: MEELEKLKKEIEELIEEALKEMEGETHEQRVAVARTMVGNIVLLLSENPLVSDEAEDEVDEIGDELVEKIEANPDLTQEELEELLKEMGEKIKKVLDEKA
# B16: GBRAP_52_5964 (protein)
# chain: MEEEMEKKLEELFELKKAGDEEGMRKKAKEIVETLNDEELELFAKVLVKKIKESNLEDAELLLEIAIVLADEIEEAGRDERIASDLLGEAAAAYYKKLQE
# B17: GBRAP_128_3208 (protein)
# chain: VSPEAVARLRALADRVAAERTPAAIREFAAALAEALRAGEIDLDTLAEIVEYLGRRLSEEDILLAEAALREALADVGADALAVALGELGEVLYEKEEEEE
# B18: GBRAP_160_4014 (protein)
# chain: SEKIEKLKKEIREEFEELKEWIEGLTPEERITLARGTAGLILQLVESSEEVSEETEEEIAKILDDFVAQVEANKDAPLEVWRALIDDTLKKILELLDKEE
# B19: GBRAP_11_2683 (protein)
# chain: KKEILKEAAKLAKELAKVIEKLLEEGTDNEELLKEAEKLLEKLEKLAKEYADEGSKKLVEIAKELWEKAKKDPKNAEKYLKELLAVARVLEGQYLLEIEE
# B20: GBRAP_11_2681 (protein)
# chain: RKEALEEAAELAREAARLLQELLEEGVDNEELLARARETLRRLRELVEAHLDEAHRRDVEVLEEALREAEADPENAAQYVREALAAARVLHYNLEDEIDE
# B21: GBRAP_166_4974 (protein)
# chain: EREKLVEELKKYFEELAEKMKTANYEEKLELLAEAAEKLREAKEKGLSKEDLRELIRYLIELAREVGIPLTDVEGALTILAELDEEEIDILLEAIEEVEA
# B22: GBRAP_9_7106 (protein)
# chain: KEEFAKKVKEIIEEAREEIKKVVPEELKPLVDKLTEELLKEIDKLAADPNATVEEIAKAAKEGLKAMAEELSKKLSPEIAAAVEAIVLTAIEEIDELAEE
# B23: GBRAP_160_4638 (protein)
# chain: SPAVEEMIEIIDEYTEMALEAVDEGDIDGALATLRMMVGDLVLEAEEAPEFSDEDVDELDKLGREHVARFEAARDASKEELRALIKEGAEELKKKVKEFG
# B24: GBRAP_128_3534 (protein)
# chain: SIEEVKKYAEEVVEEIKNSDVEKAKEITKKFIEKLKTWTDEEVEAAVEVLEEKLKELSAEKLDAVADAIRENIGKLTPEKQRLLSGLEVEALNLAEELEE
# B25: GBRAP_78_6579 (protein)
# chain: KIEEEIDKAIEYLGKAAKLAKEFPEEVSNELLDLIVEAESYLLESEEEGFSLENLEKALKYVEEAIKLVEELDDEKAKKLKEELEKAKKHLEKAIKLKKE
# B26: GBRAP_11_2817 (protein)
# chain: IDPKVKKAIELARKLAELLEEYIESKSDDEELYKEILELAEELLKLVKELNDPGFISDAEVLLELVKEMVEDKENREEYAKNALAAARTLLANIEEEAEE
# B27: GBRAP_11_2917 (protein)
# chain: KKEKLEEIAKLLEKAAELLKKLLKEGVDNEKLREEALKTLEEALKLIKENLDESSVELAKYAVELLEKSKEDPENAEEYVKEALAVVEVLLGLVLLEIEE
# B28: GBRAP_160_4857 (protein)
# chain: SEKLEKALKIIDEAREEALDAVEEAPASQRAAIAEAIALDAIYELEEEGLITEELEKALLAIVDALRAALEANADASVAEHKALVDAAFDAMKETVKEMS
# B29: GBRAP_184_5217 (protein)
# chain: ELVNRAVEATTAEEAIAKSDAVVAEAQAAGKKLNLNVFLKDMSLEEIEKVMKHLSELKKAGKIADATVVVEDPVSEEELDKLVKLADKYGIRLVVALKDE
# Molecular target: GABARAP, O95166
# Experiment: median log2 fold change of GCK-ALFA target abundance (FLAG IP / Myc IP barcode read proportion) (log2 ratio); each designed protein is fused to an ALFA-tag nanobody in HEK293 cells to bring the named protein to FLAG-tagged glucokinase (GCK); Myc marks an untargeted standard; higher = target protein stabilised (more abundant)
# Conditions: target protein: 3xFLAG-MCP-GCK-ALFA reporter; HEK293 landing pad (RPLP)
# How it was run: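 Sequencing of reverse-transcribed, amplified circular RNA barcodes from anti-FLAG and anti-Myc immunoprecipitates provided the readout for an ALFA-nanobody-fused binder library recombined into HEK293 landing-pad cells. Those cells were induced with 2 μg mL^−1 doxycycline, transfected with a plasmid expressing a FLAG-tagged target and a Myc-tagged standard, and lysed after 48 h. Target abundance is the per-binder median log2 ratio of FLAG to Myc barcode read proportions. Only barcodes at a proportion of ≥10^−7 in both replicates and binders with ≥3 barcodes per replicate were kept, with a 10^−6 pseudocount added before the two replicates were pooled.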
# GABARAP, O95166, sequence (O95166 whole entry, the tested form may be a part): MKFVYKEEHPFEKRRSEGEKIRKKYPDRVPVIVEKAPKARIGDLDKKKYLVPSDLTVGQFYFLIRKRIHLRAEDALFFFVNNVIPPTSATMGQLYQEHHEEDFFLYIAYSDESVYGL
row,Binder,median log2 fold change
1,B1,0.141
2,B2,0.174
3,B3,0.0022
4,B4,0.391
5,B5,0.372
6,B6,-0.179
7,B7,0.1
8,B8,-0.374
9,B9,0.0476
10,B10,0.0612
11,B11,0.219
12,B12,0.0749
13,B13,0.381
14,B14,0.275
15,B15,0.191
16,B16,-0.0348
17,B17,0.166
18,B18,0.174
19,B19,0.0492
20,B20,0.267
21,B21,0.0911
22,B22,0.365
23,B23,-0.113
24,B24,0.237
25,B25,0.208
26,B26,0.215
27,B27,0.218
28,B28,-0.323
29,B29,-0.073
